# According to the supplement of paper PMC4166925:
# ± gives the standard deviation of the averaged measurements. The full ranking holds about 33,000 sequences; the median of “E-score (dimensionless, -0.5 to 0.5)” is about -0.049, and the highest 2% start at about 0.37. Some of the results follow.
# System: T1, PmTbr T-box DNA-binding domain (GST fusion)
# T1 sequence: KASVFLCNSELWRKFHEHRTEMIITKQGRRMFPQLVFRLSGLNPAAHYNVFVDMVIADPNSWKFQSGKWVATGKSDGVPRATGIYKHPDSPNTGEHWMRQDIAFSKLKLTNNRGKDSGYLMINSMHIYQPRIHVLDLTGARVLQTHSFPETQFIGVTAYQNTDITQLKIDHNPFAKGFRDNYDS
# Experiment: PBM E-score of 8-mer (E-score (dimensionless, -0.5 to 0.5)); Tbr is Tbrain of the sea star Patiria miniata (Pm) or the sea urchin Strongylocentrotus purpuratus (Sp); higher = stronger binding preference; most listed sequences are background and not binding sites
# Conditions: the construct has about 5 more residues each side
# Method in brief: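 GST-fused Tbr T-box DNA-binding domains (the whole T-box plus about five flanking residues) were expressed in BL21 E. coli at 20 °C and purified by glutathione affinity chromatography. Universal Agilent oligonucleotide arrays were made double-stranded by primer extension, incubated with 200 nM protein in PBS (pH 7.5), then scanned and quantified. Every ungapped 8-mer was scored from probe intensities. The Universal PBM Analysis Suite gave each word an enrichment E-score, averaged over duplicate arrays.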
row,Sequence,PBM E-score of 8-mer
1,CGTCCACC,-0.162 ± 0.0019
2,AAAACAAT,-0.175 ± 0.012
3,CATTGGGC,-0.182 ± 0.018
4,GACTTCAC,-0.0267 ± 0.026
5,ATCCTTCA,-0.143 ± 0.044
6,GCGAGCGC,0.273 ± 0.069
7,GCACTCAC,0.193 ± 0.067
8,GGCTTAAA,-0.302 ± 0.016
9,AAAATCGT,0.158 ± 0.078
10,CAGAGCGC,-0.00607 ± 0.049
11,AGATCCAT,-0.245 ± 0.04
12,GTGCCAAC,0.403 ± 0.0056
13,TAAACTTA,-0.205 ± 0.067
14,ATGGGAGA,-0.142 ± 0.094
15,CTGTTTCA,-0.166 ± 0.038
16,GGAGAACC,-0.0137 ± 0.012
17,AGGCGCGG,0.242 ± 0.019
18,AGGGTCCC,-0.212 ± 0.013
19,ATCCCTGA,-0.336 ± 0.046
20,GCGAAGCC,0.053 ± 0.00029
21,CCGAAAAG,0.00971 ± 0.0032
22,CTGTCTCA,0.0422 ± 0.0098

row,Sequence,PBM E-score of 8-mer
1,CAATATCC,-0.198 ± 0.079
2,CCGGCTCC,-0.212 ± 0.021
3,AGGGCCAC,-0.0654 ± 0.012
4,AGTGCGGA,0.265 ± 0.0086
5,GTTCGACA,0.122 ± 0.051
6,ACGTAATG,-0.235 ± 0.035
7,AGCTTTGG,-0.11 ± 0.0043
8,AAACAGAT,-0.163 ± 0.095
9,ATCCGTCC,-0.178 ± 0.078
10,CGGGTACC,-0.0986 ± 0.039
11,GAAACTTC,-0.186 ± 0.067
12,ATTTCCAC,0.0359 ± 0.044
13,ATTAAAGG,-0.094 ± 0.012
14,AGCTCTTG,-0.336 ± 0.0074
15,CCCTTACC,0.00932 ± 0.072
16,ACGAACCG,0.0516 ± 0.07
17,AGTGCTGA,0.11 ± 0.0089
18,ACGGCGGC,0.00677 ± 0.053
19,ATATATGA,-0.00737 ± 0.039
20,AACAACGC,0.124 ± 0.02
21,CGGTCCAG,-0.316 ± 0.042
22,AGCCTAAT,-0.156 ± 0.062

row,Sequence,PBM E-score of 8-mer
1,AATATTAA,-0.0683 ± 0.083
2,GACGTACC,-0.134 ± 0.069
3,ACGCTAGG,0.145 ± 0.0059
4,CTTTCGTA,-0.0543 ± 0.1
5,GCCAGGCA,0.0365 ± 0.0073
6,CACCCTTA,0.288 ± 0.0075
7,ACGTCAAA,0.0654 ± 0.076
8,GTATGATA,-0.0519 ± 0.005
9,AAGCTTGG,-0.154 ± 0.044
10,ACGCCATG,-0.0701 ± 0.038
11,AACCACCT,0.103 ± 0.007
12,CGCTGGTA,-0.0514 ± 0.001
13,AGGAGGAA,-0.13 ± 0.018
14,ATACTGGG,-0.215 ± 0.013
15,AACTAGTC,0.0212 ± 0.032
16,AACGATCG,0.0874 ± 0.024
17,ACCCAAGT,0.135 ± 0.0038
18,AGCGTGAC,0.3524 ± 0.0023
19,CAGGAACC,-0.26 ± 0.069
20,CTCTTCCC,-0.0463 ± 0.032
21,CACGTCAA,0.191 ± 0.048
22,ATATCCAT,0.013 ± 0.025

row,Sequence,PBM E-score of 8-mer
1,AATTGGTC,-0.139 ± 0.051
2,AGATCTAT,0.0629 ± 0.018
3,ACCGTTTG,-0.117 ± 0.09
4,AGGGGTCC,-0.13 ± 0.013
5,AGGGCCCC,-0.273 ± 0.02
6,TGAGCGCA,-0.14 ± 0.0064
7,CGCCCAGA,0.049 ± 0.014
8,CCTGGCGA,0.166 ± 0.031
9,TACCGTCA,0.118 ± 0.037
10,AAAGTTGC,0.147 ± 0.01
11,TAGCTCAA,-0.184 ± 0.04
12,AAGGGGGA,-0.314 ± 0.023
13,AGGTCTTG,-0.0677 ± 0.051
14,TGGCAACA,0.245 ± 0.014
15,CGGAGGAA,-0.305 ± 0.028
16,ATTGTATA,-0.246 ± 0.012
17,AATCCAGT,-0.109 ± 0.012
18,CAACAGGC,0.06467 ± 0.00054
19,CCTTAGGA,-0.198 ± 0.013
20,TATTTCAA,-0.155 ± 0.019
21,TTGCACAA,0.0126 ± 0.031
22,CGATCATC,-0.0729 ± 0.037

row,Sequence,PBM E-score of 8-mer
1,AAGGCGGT,-0.0505 ± 0.086
2,AGGCTAGG,-0.233 ± 0.026
3,AGCATGTG,0.183 ± 0.0033
4,CATGATGA,0.0524 ± 0.058
5,TACGCGAA,0.136 ± 0.036
6,AAGTATCG,0.135 ± 0.0061
7,CCGCTAAA,0.275 ± 0.022
8,CCCAGCCC,-0.102 ± 0.025
9,GGATCCAA,-0.211 ± 0.089
10,CGCGGAAG,0.11 ± 0.036
11,GCATTGCC,-0.104 ± 0.0042
12,GGAACGTA,-0.204 ± 0.057
13,ACCGGTGC,-0.139 ± 0.065
14,AATAGTTC,-0.0733 ± 0.033
15,AATAACTC,-0.065 ± 0.035
16,CAATCCCG,-0.0527 ± 0.0032
17,GAAGCACA,-0.148 ± 0.025
18,ATACCGTG,0.0987 ± 0.017
19,ACTACTTG,0.0273 ± 0.046
20,ATTTCTAC,-0.00722 ± 0.0049
21,GCACGTGA,0.225 ± 0.0076
22,AACTTAAC,0.0266 ± 0.052
